This is an account of results in the antibiotic and cytotoxicity screens of Wong et al. (2023).

Structures are written as SMILES. This is one part of the list.

Assay [1] concerns HSkMC (human skeletal muscle cells). Briefly: cytotoxicity call (relative viability < 0.9). The note with it: 10 µM.
Assay [2] relates to HepG2. Briefly: cytotoxicity call (relative viability < 0.9). The settings on record: 10 µM.
Assay [3] relates to S. aureus RN4220. Briefly: growth inhibition call (relative growth <= 0.2). The settings on record: 50 µM.

Regarding `O=C(C[C@@H]1C[C@H]2c3cc(NS(=O)(=O)c4ccc(F)cc4)ccc3O[C@H]2[C@@H](CO)O1)N1CCCCC1`, the cytotoxicity call in assay [1] and in assay [2] was “inactive” in each case. Besides, the growth inhibition call in assay [3] is “inactive”.
For the compound `C[C@@H]1CN([C@@H](C)CO)C(=O)Cc2cc(NC(=O)Nc3cccc4ccccc34)ccc2O[C@@H]1CN(C)S(=O)(=O)c1ccc(Cl)cc1`, in assay [1], the cytotoxicity call is “inactive”. Moreover, the cytotoxicity call in assay [2] was “active”. The growth inhibition call in assay [3] was “inactive”.
In the case of `C[C@H](CO)N1C[C@H](C)[C@H](CN(C)S(=O)(=O)c2cccs2)Oc2ccc(NC(=O)Cc3ccccc3)cc2C1=O`, the cytotoxicity call in assay [1] and in assay [2] was “inactive” each time. The growth inhibition call in assay [3] is “inactive”.
For the compound `CN(C)CC#Cc1ccc([C@@H]2[C@@H](CO)N3CCCCN(C(=O)CN(C)C)C[C@H]23)cc1`, the cytotoxicity call in assay [1] and in assay [2] was “inactive” in each case. Also, in assay [3], the growth inhibition call is “inactive”.
`Cc1noc(C)c1NC(=O)Nc1ccc2c(c1)C(=O)N([C@@H](C)CO)C[C@H](C)[C@@H](CN(C)S(=O)(=O)c1ccc(F)cc1)OCCCC[C@@H](C)O2`: the cytotoxicity call in assay [1] and in assay [2] was “inactive” in each case. In addition, the growth inhibition call in assay [3] was “inactive”.
On to `NNC(=O)CCc1ccccc1`, for which the cytotoxicity call in assay [1] and in assay [2] was “inactive” in each case. The growth inhibition call in assay [3] was “inactive”.
Consider `COCCNC(=O)C[C@H]1CC[C@@H]2[C@@H](COc3ccc(NS(=O)(=O)c4ccc(Cl)cc4)cc3C(=O)N2C)O1`, for which the cytotoxicity call in assay [1] and in assay [2] was “inactive” throughout. The growth inhibition call in assay [3] was “inactive”.
For the compound `CC(=NNC(=O)c1nnn(-c2nonc2N)c1CN1CCC(C)CC1)c1cccc(Br)c1`, the cytotoxicity call in assay [1] and in assay [2] was “inactive” each time. In assay [3], the growth inhibition call was “inactive”.
In the case of `C[C@@H]1CN([C@@H](C)CO)C(=O)Cc2cc(NC(=O)CCN3CCOCC3)ccc2O[C@H]1CN(C)C(=O)Nc1ccc2c(c1)OCO2`, the cytotoxicity call in assay [1] and in assay [2] was “inactive” in each case. Moreover, the growth inhibition call in assay [3] is “inactive”.
In the case of `C[C@@H]1CN([C@@H](C)CO)C(=O)c2ccccc2-c2ccccc2CO[C@@H]1CN(C)Cc1ccc(Oc2ccccc2)cc1`, the cytotoxicity call in assay [1] and in assay [2] was “inactive” each time. Also, the growth inhibition call in assay [3] is “inactive”.
As for `Cc1ncc[nH]1`, the cytotoxicity call in assay [1] and in assay [2] was “inactive” each time. Also, the growth inhibition call in assay [3] is “inactive”.
In the case of `Cc1cc(C(=O)Nc2cccc3c2O[C@@H](CN(C)C(=O)NC2CCCCC2)[C@H](C)CN([C@H](C)CO)C3=O)n(C)n1`, the cytotoxicity call in assay [1] and in assay [2] was “inactive” throughout. Also, the growth inhibition call in assay [3] was “inactive”.
As for `C[C@@H]1CCCCO[C@@H](CN(C)S(=O)(=O)c2ccccc2)[C@H](C)CN([C@@H](C)CO)C(=O)c2cc(NC(=O)C3CCCCC3)ccc2O1`, the cytotoxicity call in assay [1] and in assay [2] was “inactive” throughout. Besides, the growth inhibition call in assay [3] is “inactive”.
`Cc1noc(C)c1NC(=O)Nc1cccc2c1O[C@H](CN(C)Cc1ccc(-c3ccccc3)cc1)[C@H](C)CN([C@H](C)CO)C2=O`: the cytotoxicity call in assay [1] and in assay [2] was “inactive” throughout. In addition, in assay [3], the growth inhibition call was “inactive”.
Turning to `COC(=O)c1c2oc(c1C(=O)OC)C(=O)N[C@@H](Cc1ccccc1)Cn1cc(nn1)CNC(=O)[C@H](Cc1ccccc1)NC(=O)N[C@@H](CO)CC2`, the cytotoxicity call in assay [1] and in assay [2] was “inactive” each time. Also, the growth inhibition call in assay [3] is “inactive”.
`C[C@@H]1CN([C@H](C)CO)C(=O)Cc2cc(NC(=O)Nc3ccccc3)ccc2O[C@@H]1CN(C)S(C)(=O)=O`: the cytotoxicity call in assay [1] and in assay [2] was “inactive” in each case. The growth inhibition call in assay [3] is “inactive”.
